# Experimental data published in PubChem BioAssay AID504832 (National Center for Advancing Translational Sciences (NCATS), 2011).
# “And” between values parts separate entries of the source, which are not always exact repeats. Equal entries are not always repeated. About 18,000 (5.8%) of roughly 310,000 compounds were called active. Inconclusive means that the source gave no clear call. Such entries were picked first, then a sample of the others. Calls come from the whole dose curve; as a rule, active = well fitted inhibition curve with a large enough effect; inconclusive = small, poorly fitted or top-dose-only effect, or another doubt; inactive = no such curve, though single readings can be large or run the other way. Potencies beside an inconclusive call are fits to weak or partial responses and may not hold up.
# Experiment: Primary qHTS for delayed death inhibitors of the malarial parasite plastid, 48 hour incubation
# Conditions: P. falciparum luciferase growth in erythrocytes; series mostly up to 28.7 µM; activity change, negative = inhibition: at the top concentration
# How it was run: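 Growth was read as firefly luciferase luminescence after a 48 h, 37 C, 5% CO2 exposure of compounds to reporter-bearing P. falciparum cultures (0.1% parasitemia, 2% hematocrit final) in Albumax-supplemented RPMI 1640.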
# % is set by controls: 0 for no effect and ±100 for the full control effect; potency is the fitted concentration of half-maximal effect; tags give direction and shape of the fitted curve.
SMILES,Potency,"activity change, negative = inhibition"
O=C(NCC(=O)N(CC1CCCO1)C(C(=O)NC1CCCC1)c1ccc(F)cc1)c1ccco1 (stereo not given),"inconclusive: 5.22 µM [inhibitor, partial curve, poor fit]",–
O=C1c2ccccc2C(=O)C1c1ccc(Br)cc1,"inconclusive: 19 µM [inhibitor, single point] and inconclusive: 14.7 µM [inhibitor, single point]",–
Cc1ccc(OCC(O)Cn2nc(C)cc2C)cc1 (stereo not given),–,inactive: -2.72%
CCCCSc1nc(O)c(C2OC(=O)c3c2ccc(OC)c3OC)c(=O)n1C (stereo not given),–,inactive: 0.188%
COc1cccc(NC(=O)NC2(C(F)(F)F)Oc3ccccc3O2)c1,"inconclusive: 18.5 µM [inhibitor, single point]",–
COc1ccc(C(C(=O)NCc2ccccc2)N(Cc2cccs2)C(=O)c2cnccn2)cc1 (stereo not given),"inconclusive: 18.5 µM [inhibitor, single point]",–
CCN(CC)S(=O)(=O)c1ccc(N2CC(C(=O)NCCc3ccc(Cl)cc3)CC2=O)cc1 (stereo not given),"inconclusive: 8.28 µM [inhibitor, partial curve, poor fit]",–
CCOC(=O)c1ccc(CSc2nnc(N)s2)cc1,–,inactive: 63.2%
COc1ccc2cc(C(=O)C3CCCN(C(=O)c4csnn4)C3)ccc2c1 (stereo not given),"inconclusive: 18.5 µM [inhibitor, single point]",–
O=C(Cn1c(C(=O)NCCCN2CCOCC2)cc2sccc21)c1ccccc1,–,inactive: -17.1%
O=C(NC(=S)NCCO)c1cn(-c2ccccc2)nc1-c1ccccc1,–,inactive: 32.5%
COc1cc(C(=O)NNC(=O)CN2C(=O)NC(C)(c3ccc(C)cc3)C2=O)cc(OC)c1OC (stereo not given),"inconclusive: 18.5 µM [inhibitor, single point]",–
COc1cccc(-c2nnc(SCc3ccc(C#N)cc3)n2Cc2ccco2)c1,"inconclusive: 18.5 µM [inhibitor, single point]",–
Cc1cc(C)cc(C(=O)Nc2cccc(NC(=O)c3ccco3)c2)c1,"inconclusive: 9.28 µM [inhibitor, partial curve, poor fit]",–
NC(=O)c1cc(NC(=O)CCCc2nc3ccccc3s2)cc(C(N)=O)c1,–,inactive: -7.08%
CCCCn1c(CCC(=O)O)nc2cc(S(=O)(=O)N(C)C)ccc21,"inconclusive: 0.0026 µM [inhibitor, full curve, poor fit]",–
Cc1nn(-c2cccc(C(=O)O)c2)c(C)c1[N+](=O)[O-],–,inactive: -7.25%
COc1ccc(C(CC(=O)N2CCCCC2)NC(=O)C(F)(F)F)cc1 (stereo not given),"inconclusive: 5.22 µM [inhibitor, partial curve, poor fit]",–
CCOc1ccccc1OCCC(=O)OCC(=O)Nc1c(C)cc(C)cc1C,–,inactive: -2.96%
COc1ccc2cc(CO)c(Cl)nc2c1,–,inactive: 1.03%
Cc1cc(NC(=O)/C=C/c2ccc(Br)cc2)no1,"inconclusive: 7.38 µM [inhibitor, partial curve]",–
CCOc1ccc(S(=O)(=O)Nc2ccccc2SC)c2cccnc12,"inconclusive: 9.28 µM [inhibitor, partial curve, poor fit]",–
O=C(COC(=O)c1cccnc1Cl)Nc1nc(-c2ccccc2)cs1,–,inactive: 60.1%

SMILES,Potency,"activity change, negative = inhibition"
CC(C)CC(=O)Nc1cccc2c1C(=O)N(c1ccccc1)C2=O,–,inactive: -15.6%
Cc1cccc(-c2nnc(NC(=O)c3ccc(N4C(=O)CCC4=O)cc3)s2)c1,"inconclusive: 9.28 µM [inhibitor, partial curve, poor fit]",–
COCCSc1nnc(NC(=O)c2ccco2)s1,–,inactive: 52.9%
O=C(NC1CCCC1)C(c1cccnc1)N(C(=O)c1ccco1)c1cccc(F)c1 (stereo not given),"inconclusive: 16.5 µM [inhibitor, single point]",–
Cc1cc(OCC(=O)Nc2ccc(N3CCN(C(=O)c4ccco4)CC3)cc2)cc(C)c1Cl,active: 9.28 µM,–
Cc1ccc(C)c(S(=O)(=O)NCC(=O)Nc2ccc3c(c2)OCO3)c1,–,inactive: 4.18%
Nc1nc(OCC2CCCCC2)c2[nH]cnc2n1,"inconclusive: 6.57 µM [inhibitor, partial curve, poor fit]",–
CCN(C(=O)CN1C(=O)NC2(CCc3ccccc32)C1=O)C1CCS(=O)(=O)C1 (stereo not given),–,inactive: -14.3%
COc1ccc(Br)cc1/C=C/C(=O)Nc1c(C)cccc1C,"inconclusive: 5.86 µM [inhibitor, partial curve, poor fit]",–
COc1ccc(C(=O)CN2CCN(c3cc(C)nc4ccccc34)CC2)cc1,"inconclusive: 13.1 µM [inhibitor, single point]",–
O=C(Nc1cc([N+](=O)[O-])ccc1C(=O)Nc1cccnc1)c1ccccc1,"inconclusive: 4.15 µM [inhibitor, partial curve, poor fit]",–
COc1ccc(-c2c(C#N)c(SCC(=O)c3cc4ccccc4oc3=O)nc(C)c2C(=O)Nc2ccccc2)cc1,"inconclusive: 8.28 µM [inhibitor, partial curve]",–
CCC(C)(C)n1nnnc1C(C(C)C)N(CCCO)Cc1cc2cc(C)ccc2[nH]c1=O (stereo not given),"inconclusive: 16.5 µM [inhibitor, single point]",–
Cc1csc2ncc(C(=O)Nc3ccc4c(c3)OCCO4)c(=O)n12,–,inactive: 0%
Cc1cc(=O)[nH]c(N/N=C/c2c(C)nn(-c3ccccc3Cl)c2Cl)n1,"inconclusive: 1.65 µM [inhibitor, full curve]",–
CCC(c1nnnn1C1CCCC1)N1CCN(Cc2ccccc2)CC1 (stereo not given),"inconclusive: 9.28 µM [inhibitor, single point]",–
COc1cccc(N2C(=O)C3CCCN3C2c2cccs2)c1 (stereo not given),"inconclusive: 11.7 µM [inhibitor, single point]",–
O=C(CCNC(=O)c1ccc([N+](=O)[O-])cc1)NCCC1=CCCCC1,–,inactive: -5.46%
O=C(NC1CCCCCCC1)c1ccc2c(c1)N(Cc1ccc(F)cc1)C(=O)CS2=O (stereo not given),active: 11.7 µM,–
CCNC(=S)NNC(=O)c1cc(-c2cccc(OCC)c2)nc2ccccc12,"inconclusive: 16.5 µM [inhibitor, single point]",–
COc1ccc(OC)c(Nc2cc(C)c3ccccc3n2)c1,–,inactive: 25.3%
CC(C)CCN(C(=O)CNC(=O)c1ccco1)C(C(=O)NC1CCCCC1)c1ccco1 (stereo not given),"inconclusive: 18.5 µM [inhibitor, single point]",–
